The campaign covered roughly 310,000 compounds. About 14,000 (4.5%) showed an effect of 50% or more. Effects have a minus sign here. The list shows a part of the results.

25 compounds from publication PMC4336329 (PLoS ONE, 2015) can be followed below.
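Also: peak tail current of the secondary pulse compared with the same well before compound.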

Sequence of human ether-à-go-go-related gene (hERG) potassium channel (Q12809 whole entry, looked up): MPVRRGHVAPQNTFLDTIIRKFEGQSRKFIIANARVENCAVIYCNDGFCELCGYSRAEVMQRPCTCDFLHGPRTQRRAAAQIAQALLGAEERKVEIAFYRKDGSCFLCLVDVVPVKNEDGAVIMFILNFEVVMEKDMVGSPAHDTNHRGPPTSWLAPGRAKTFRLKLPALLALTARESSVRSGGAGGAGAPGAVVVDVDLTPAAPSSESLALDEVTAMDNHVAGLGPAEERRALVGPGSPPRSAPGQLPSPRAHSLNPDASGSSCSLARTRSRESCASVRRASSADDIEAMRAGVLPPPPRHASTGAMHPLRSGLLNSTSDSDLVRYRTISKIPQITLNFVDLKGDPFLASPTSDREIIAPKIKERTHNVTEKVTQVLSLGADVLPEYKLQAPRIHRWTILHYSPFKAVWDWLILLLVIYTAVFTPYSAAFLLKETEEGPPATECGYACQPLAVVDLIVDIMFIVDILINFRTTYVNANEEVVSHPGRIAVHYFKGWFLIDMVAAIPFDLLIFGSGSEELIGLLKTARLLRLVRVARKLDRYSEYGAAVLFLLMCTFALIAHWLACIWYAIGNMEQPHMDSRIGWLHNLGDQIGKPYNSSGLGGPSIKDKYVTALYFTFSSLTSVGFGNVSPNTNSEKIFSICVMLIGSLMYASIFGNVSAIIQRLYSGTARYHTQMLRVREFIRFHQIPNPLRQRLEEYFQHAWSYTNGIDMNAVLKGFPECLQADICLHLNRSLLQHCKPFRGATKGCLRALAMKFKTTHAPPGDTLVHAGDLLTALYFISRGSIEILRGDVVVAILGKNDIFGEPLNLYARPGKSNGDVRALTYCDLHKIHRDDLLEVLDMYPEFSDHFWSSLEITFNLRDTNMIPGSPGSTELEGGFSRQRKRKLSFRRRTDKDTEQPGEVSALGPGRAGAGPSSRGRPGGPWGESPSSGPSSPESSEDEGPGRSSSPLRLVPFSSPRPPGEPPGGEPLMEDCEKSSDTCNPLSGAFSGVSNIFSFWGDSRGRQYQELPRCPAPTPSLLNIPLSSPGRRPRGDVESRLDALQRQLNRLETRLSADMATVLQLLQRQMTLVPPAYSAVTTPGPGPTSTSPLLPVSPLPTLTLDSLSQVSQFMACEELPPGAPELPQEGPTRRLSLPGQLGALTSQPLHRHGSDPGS

This test has as its target human ether-à-go-go-related gene (hERG) potassium channel (human, UniProt Q12809). As to the kind of experiment: primary screen, population patch clamp on CHO cells stably expressing hERG.
In the case of `CC(=O)c1ccc(C(=O)N2CCC(CO)(Cc3cccc(C(F)(F)F)c3)CC2)cc1`, the “hERG current change (%, negative = inhibition) at 10uM” value is -74.6%.

On to `Cc1ccnc(NC(=O)c2ccc3c(c2)C(=O)N(CC(C)C)C3=O)c1`, for which the “hERG current change (%, negative = inhibition) at 10uM” value was -10.5%.

Regarding `O=C(c1cc(=O)c2cc(Cl)ccc2o1)N1CCN(Cc2ccccc2)CC1`, the “hERG current change (%, negative = inhibition) at 10uM” value is listed as -70.8%.

In the case of `COc1ccc2oc(=N)c(C(=O)Nc3ccc(Br)cc3)cc2c1`, the “hERG current change (%, negative = inhibition) at 10uM” value was 10.8%.

On to `Cc1noc(/C=C/N(C)C)c1S(=O)(=O)N1CCC(C(=O)O)CC1`, for which the “hERG current change (%, negative = inhibition) at 10uM” value stood at 21.6%.

Turning to `COc1cccc(-c2nn(-c3ccccc3)cc2CN(C)C(C)c2ccncn2)c1` (stereo not shown), the “hERG current change (%, negative = inhibition) at 10uM” value is reported as -15.6%.

Turning to `Cn1nnnc1SCc1nnc(-c2ccc(F)cc2)o1`, the “hERG current change (%, negative = inhibition) at 10uM” value was -6.36%.

As for `Cc1cc(OCC(O)CN)ccc1Cl` (stereo not shown), the “hERG current change (%, negative = inhibition) at 10uM” value amounted to 8.74%.

As to `O=C(CNC(=S)N(Cc1ccccc1)Cc1cccnc1)NC1CCCCC1`, the “hERG current change (%, negative = inhibition) at 10uM” value is given as -26.4%.

For the compound `Cc1nnc(SCc2ccccc2)[nH]c1=O`, the “hERG current change (%, negative = inhibition) at 10uM” value was determined as 19.8%.

Regarding `Cn1nccc1NC(=O)NC(=O)c1c(Cl)cccc1Cl`, the “hERG current change (%, negative = inhibition) at 10uM” value turned out to be 11.6%.

Regarding `COc1ccc(C(=O)Nc2ccc(N3CCC(C)CC3)cc2)cc1Br`, the “hERG current change (%, negative = inhibition) at 10uM” value was 23.5%.

On to `CCN1CCN(Cc2c(C)[nH]c3ccc(OC)cc3c2=O)CC1`, for which the “hERG current change (%, negative = inhibition) at 10uM” value is -6.99%.

Regarding `COc1ccccc1N1C(=O)CC(N2CCN(c3ccc(Cl)cc3)CC2)C1=O` (stereo not shown), the “hERG current change (%, negative = inhibition) at 10uM” value stood at 1.61%.

On to `C=CCNC(=O)N1CCCC(C(=O)c2cccc(OC(C)C)c2)C1` (stereo not shown), for which the “hERG current change (%, negative = inhibition) at 10uM” value is recorded as -0.855%.

For `O=C(c1ccccc1)c1ccc(-n2ccnc2)c([N+](=O)[O-])c1`, the “hERG current change (%, negative = inhibition) at 10uM” value was -25.8%.

Consider `COc1ccccc1NC(=O)c1ccc(-c2ccc(Br)cc2)o1`, for which the “hERG current change (%, negative = inhibition) at 10uM” value is listed as -4.13%.

For `CCOc1ccc(NC(=O)[C@@H](NC(=O)c2ccco2)C(C)C)cc1`, the “hERG current change (%, negative = inhibition) at 10uM” value is given as -3.67%.

Take `CCCCc1nc(NCCO)c(C#N)c2c1CCCC2`: the “hERG current change (%, negative = inhibition) at 10uM” value was -15.7%.

With `c1ccc(-c2ncc(CN3CCN(c4ccccn4)CC3)[nH]2)cc1`, the “hERG current change (%, negative = inhibition) at 10uM” value was -14.1%.

In the case of `COc1ccc(CCNC(=O)CCn2c(=O)c3ccccc3n(CC(=O)NCC3CCCO3)c2=O)cc1OC` (stereo not shown), the “hERG current change (%, negative = inhibition) at 10uM” value was determined as 8.86%.

For `O=C1CCCN1CCC(=O)N1CCCC(Nc2ccc(F)c(F)c2)C1` (stereo not shown), the “hERG current change (%, negative = inhibition) at 10uM” value was determined as 1.24%.

`CCOC(=O)c1cc(-c2ccccc2)sc1NC(=O)c1ccc(OC)c(OC)c1`: the “hERG current change (%, negative = inhibition) at 10uM” value is -3.71%.

For `Cc1cccc(C2(c3cccc(C)c3)OC(=O)c3ccccc32)c1`, the “hERG current change (%, negative = inhibition) at 10uM” value was 7.88%.

Take `O=C(Nc1ccc(Cl)c(Cl)c1)C1CCCCC1`: the “hERG current change (%, negative = inhibition) at 10uM” value was -8.42%.
